Consider 42 molecules from ChEMBL document CHEMBL4888484, “Replenishing the malaria drug discovery pipeline: Screening and hit evaluation of the MMV Hit Generation Library 1 (HGL1) against asexual blood stage Plasmodium falciparum ,using a nano luciferase reporter read-out” (2022).

SMILES strings stand for the structures. About 540 (0.36%) of roughly 150,000 compounds showed an effect of 50% or more. This is one part of the list.

The assay relates to Plasmodium falciparum. The experiment in a line: Primary screen in NF54 nanoGlo assay, in single point, at 2uM, 72h; a lower Z score goes with more inhibition. Format: functional, Erythrocyte. Particulars: timepoint 72 hour.
Broadly, the % Inhibition is the relative decrease from the control value, in per cent. For `CCCc1cc(=O)n(CC(=O)Nc2c(C)cccc2C)c(-c2ccc(F)cc2)n1`, the “% Inhibition” value is recorded as -22% and the Z score amounted to 1.92.
For `CN(C)c1nc(-c2ccc(C(N)=O)c(Cl)c2)n[nH]1` the same measures were -17% and 1.81.
For `O=C(CN1CCO[C@H]2CCC[C@H]21)Nc1ccc2c(c1)CCC2` the same measures were -5% and 0.57.
On to `O=C1NCCCCCCN(Cc2ccncc2)[C@@H]2CN(C(=O)NC3CCCCC3)CC[C@@H]12`, for which the “% Inhibition” value was -11% and the Z score came out at 1.47.
Taken in the same sequence, the figures for `CCNC(=O)O[C@@H]1CC[C@]2(C)C(CC[C@@H](O)[C@H]2CC(=O)NCc2cccs2)[C@]1(C)CO` (some centres undefined) were -4% and 0.6.
For `CN1C(=O)CC(c2nc(CCc3ccccc3)no2)C1c1cccnc1` (centres undefined) the same measures were -5% and 0.42.
Taken in the same sequence, the figures for `COCCC[C@H]1CCCCN1C(=O)CN(C)c1ccccc1` were -15% and 1.94.
Consider `CC(=O)N1CCC(Oc2ccc(Cl)cc2C(=O)N(C)Cc2csc(C)n2)CC1`, for which the “% Inhibition” value is given as 7% and the Z score was -0.93.
With `Clc1cccc(-c2nc(N3CCCCCC3)nc3c2COc2ccccc2-3)c1`, the “% Inhibition” value is given as -7% and the Z score came to 1.07.
As for `CCn1nc(COc2ccccc2)nc1[C@@H]1CCCN1C(N)=O`, the “% Inhibition” value was -10% and the Z score is listed as 1.47.
Taken in the same sequence, the figures for `O=C(NC1CC=CCC1C(F)(F)F)c1cnnc2ccccc12` (centres undefined) were -2% and 0.29.
On to `Nc1cnc2ccc3nn(-c4ccccc4)nc3c2n1`, for which the “% Inhibition” value is reported as 3% and the Z score was -0.4.
As for `Cc1ccc(CNC(=O)c2[nH]c(C)c(S(=O)(=O)N3CCCCC3)c2C)cc1`, the “% Inhibition” value is recorded as -12% and the Z score is reported as 1.63.
Taken in the same sequence, the figures for `Cc1nc2n(n1)CCN(S(=O)(=O)CC1CCC(C3CC3)O1)C2` (centres undefined) were 3% and -0.51.
Consider `Cc1nonc1C(=O)NC1(c2ccccc2)COC1`, for which the “% Inhibition” value is 6% and the Z score was -1.1.
Take `COc1ccccc1-c1ncc(CN2C[C@H](O)[C@@H](N3CCCC3)C2)cn1`: the “% Inhibition” value came out at 4% and the Z score is -0.84.
Taken in the same sequence, the figures for `CN1CCC(Oc2nc3ccccc3cc2C#N)CC1` were -3% and 0.47.
Taken in the same sequence, the figures for `CCn1cncc1CN(C)[C@H]1C[C@H](c2cccc(OC)c2)C1` were 1% and -0.08.
For `O=C(CC(c1ccccc1)c1ccccc1)N1CCNC(=O)C12CCCC2` the same measures were -6% and 0.91.
With `COc1ccccc1-c1cc2nc(C)cc(N3CCN(CCO)CC3)n2n1`, the “% Inhibition” value is -14% and the Z score was determined as 1.98.
Taken in the same sequence, the figures for `Cn1cccc(C(=O)N2CCC(c3nnc(C(F)(F)F)o3)CC2)c1=O` were -12% and 1.33.
For `CCC1(CC)CCN(C(=O)[C@]2(C)CCCN2)C1` the same measures were -16% and 2.52.
Taken in the same sequence, the figures for `Cc1cccc(C(=O)NC[C@](C)(O)c2ccc(F)cc2F)n1` were 3% and -0.45.
On to `CS(=O)(=O)CC1(CC(=O)N2CCCCO2)CC1`, for which the “% Inhibition” value is -29% and the Z score is 3.38.
Taken in the same sequence, the figures for `O=C(C1=CCCC1)N1CCC2CCCC21` (centres undefined) were -1% and 0.11.
`COc1ccccc1N1CCN([C@H]2[C@@H]3OC[C@@H](O3)[C@@H](NCc3ccccn3)[C@@H]2O)CC1`: the “% Inhibition” value is listed as 5% and the Z score is on record as -0.78.
Taken in the same sequence, the figures for `C[C@@H](c1ccccc1)n1c(=O)c2c(ncn2Cc2ccccc2)n(-c2cccc(Cl)c2)c1=O` were -8% and 0.76.
`Cc1ccc(NC(=O)[C@]2(Cc3cccnc3)CCCCC(=O)N2)cc1`: the “% Inhibition” value is recorded as -4% and the Z score is 0.81.
For `COc1ccc(CNC(=O)N(C)[C@H]2CCN(C)C2)c(OC)c1` the same measures were 2% and -0.19.
With `C/C(=C\c1ccccc1)CN1[C@H]2CCNC[C@@H]1CC2`, the “% Inhibition” value was -8% and the Z score was determined as 1.08.
For `Cn1ccc2c(cc(C(=O)N3CCN(c4ccc(F)cc4)CC3)n2C)c1=O`, the “% Inhibition” value is -2% and the Z score came out at 0.19.
Taken in the same sequence, the figures for `CC(C)CN(C(=O)[C@@H]1CCCO1)C1CC1` were 7% and -0.75.
For `CC(=O)c1cccc(-n2cnnc2CCc2c(C)n[nH]c2C)c1` the same measures were 6% and -0.77.
For `CC(C)N1CCC(Nc2ccc3c(c2)CCC(=O)N3CC2CC2)CC1` the same measures were -7% and 0.94.
As to `CC(=O)NC[C@H]1CCN(Cc2cc(Cl)ccc2F)C[C@H]1N(C)C`, the “% Inhibition” value was -7% and the Z score came to 0.94.
Taken in the same sequence, the figures for `C[C@@H](CCc1nc(-c2cccc3c2ccn3C)n[nH]1)N1CCN(C)CC1` were 23% and -2.98.
Regarding `C[C@H](O)c1cccc(-c2cccc3cccnc23)n1`, the “% Inhibition” value is -10% and the Z score turned out to be 1.3.
Take `Cc1cc(N2CCC(C)CC2)nc2ccc(NC(=O)c3cccnc3)cc12`: the “% Inhibition” value is recorded as 18% and the Z score is -2.1.
Taken in the same sequence, the figures for `Cc1c(C#N)c(NC(=O)COC[C@H]2CCCO2)n2ccccc12` were -13% and 1.77.
Taken in the same sequence, the figures for `COc1ncc(CNC(=O)N2CCOCC3(CCC3)C2)cc1Cl` were -14% and 2.68.
For `CCCCn1nc(-c2ccncc2)nc1-c1cnccn1` the same measures were -8% and 1.54.
Regarding `COCCNC(=O)c1c(C)c(S(=O)(=O)N2CCC(C)CC2)c(C)n1C`, the “% Inhibition” value is given as -5% and the Z score worked out at 0.6.
